Experimental data from PubChem BioAssay AID686979 (National Center for Advancing Translational Sciences (NCATS), 2013).
Out of some 420,000 compounds screened, about 50,000 (12%) were called active. Inconclusive results, whose numbers are uncertain, are shown with a selection of clear calls. The call rests on the fitted dose curve; in most records, active means well fitted inhibition curve with a large enough effect; inconclusive means small, poorly fitted or top-dose-only effect; inactive means flat fitted curve, though single readings scatter. No potency is given beside an inconclusive call; the fits are too rough.

assay: qHTS for Inhibitors of human tyrosyl-DNA phosphodiesterase 1 (TDP1): qHTS in cells in presence of CPT; settings: chicken DT40 Tdp1-/-;hTDP1 cells + 20 nM CPT, ATP luminescence, 48 h; activity change, negative = growth inhibition: at 46.2 µM (top of the series); further: nearly all actives have a fitted effect of over 55% in size
Procedure, shortened: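 Chicken DT40 Tdp1-/- cells stably complemented with human TDP1 were seeded at 400 cells/well in medium containing 20 nM camptothecin, exposed to pin-transferred compounds, and grown at 37 °C for at least 48 hr. Viability was read as ATP luminescence.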
On the % scale 0 is the no-effect control and ±100 the full control effect; potency means the concentration at half of the fitted maximal effect; tags describe the fitted curve by direction and shape.

Compound	Potency	activity change, negative = growth inhibition
COc1cc(Cl)c(NC(=O)c2cc3ccccn3n2)c(OC)c1	active: 16.4 µM	–
CN(CC(=O)NC(=O)NCc1ccccc1)CC(=O)Nc1ccc(Cl)c(Cl)c1	active: 25.9 µM	–
Cc1nc2ccccn2c(=O)c1NC(=O)c1ccc(F)c(F)c1	inactive	–
Cc1ccc(NC(=O)CSc2n[nH]c(-c3ccccn3)n2)cc1	active: 5.8 µM	–
O=C(CCC(=O)c1cccs1)NCc1ccccc1Cl	inactive	–
CCCCCc1cc(=O)oc2c(C(CCN3CCCCC3)c3ccc(OC)cc3)c(OC)cc(OC)c12 (stereo not given)	inconclusive [inhibitor, single point]	–
CCOc1ccc(NC(=O)CSc2nnc(NC(=O)C3CC3)s2)cc1	inactive	–
CCN(CC)CCNC(Cc1ccccc1)c1cccc(OC)c1 (stereo not given)	inconclusive [inhibitor, partial curve]	–
CC(C)C[C@@H](CNCC(=O)[C@H](C)NC(=O)c1[nH]cnc1C(=O)N[C@@H](C)CN)NC(=O)c1nc[nH]c1C(=O)N[C@@H](C)C(=O)O	inactive	–
COc1cc(C)nc(N2CCCC(C(=O)Nc3cccc(Cl)c3C)C2)n1 (stereo not given)	active: 23.1 µM	–
Cc1oc2cc3oc(=O)c(CC(=O)O)c(C)c3cc2c1-c1ccccc1	inactive	–
COCc1nnc(NC(=O)C2CCN(C(=O)c3ccccc3)CC2)s1	inactive	–
COc1cc(Cl)ccc1OC1(C)CCN(Cc2ccc3ccccc3c2)C1 (stereo not given)	inconclusive [inhibitor, single point]	–
COC(=O)N1CCCCC1c1cc(C(=O)NCc2ccccc2)no1 (stereo not given)	inactive	–
Cc1noc(C)c1S(=O)(=O)N(CC(=O)NC(C)c1ccccc1)c1ccc(C(C)C)cc1 (stereo not given)	inconclusive [inhibitor, partial curve]	–
Cc1nc(-c2ccc(F)cc2)c(CC(=O)N2CCN(S(=O)(=O)c3ccc(F)cc3)CC2)s1	inconclusive [inhibitor, single point]	–
O=C(Cn1nnc2ccccc2c1=O)Nc1cccc(S(=O)(=O)N2CCOCC2)c1	inactive	–
CCNC(=O)C1(C)CCN(C(=O)c2cccs2)C1 (stereo not given)	inactive	–
O=C(CN1CCN(C(=O)C2CC2)CC1)Nc1cc(C(F)(F)F)cc(C(F)(F)F)c1	inconclusive [inhibitor, single point]	–
Cc1ccc(NC(=O)c2c(C(F)(F)F)nn(C)c2SCc2ccc(Cl)cc2)cc1C	active: 25.9 µM	–
Cc1cc(NC(=O)c2cccc(S(=O)(=O)N3CC(c4ccccc4)CC3=O)c2)no1 (stereo not given)	–	inconclusive: -30.1% [inhibitor]
O=C(Nc1ccc(N2CCCC2)c(Cl)c1)c1ccc2c(c1)OCCO2	inconclusive [inhibitor, single point]	–
Cc1cc(C)cc(C(O)c2ncc(-c3ccc4ccccc4c3)[nH]2)c1 (stereo not given)	active: 23.1 µM	–
COc1ccccc1CN(C)CC(=O)Nc1ccc(Cl)cc1F	inconclusive [inhibitor, partial curve]	–
CCN(CC)C(=O)c1[nH]cnc1C(=O)N[C@@H](Cc1ccccc1)C(=O)OC(C)(C)C	inconclusive [inhibitor, single point]	–

Compound	Potency	activity change, negative = growth inhibition
CCOc1ccccc1N1CCN(C(=O)c2ccc3c(c2)OCO3)CC1	inconclusive [inhibitor, partial curve]	–
COc1ccc(CCN(C)C2CC(=O)N(c3ccccc3)C2=O)cc1OC (stereo not given)	active: 9.2 µM	–
CC(C)C(C(=O)NCc1ccccc1)N1CCN(C(=O)C2CCCO2)CC1 (stereo not given)	inactive	–
COc1cc(=O)n2c(c1C(=O)NC(C)c1ccco1)CCN(C(=O)c1cc(C)cc(C)c1)CC2 (stereo not given)	inactive	–
Cc1ccc(CCNC(=O)c2ccc3nc(N4CCC(C)CC4)sc3c2)cc1	inconclusive [inhibitor, full curve]	–
CCOc1ccc(C2CC(=O)Nc3nc(SCc4ccccc4C)[nH]c(=O)c32)cc1OC (stereo not given)	inconclusive [inhibitor, single point]	–
COc1ccc(-c2cc(-c3ccccc3)n[nH]2)c(O)c1	inactive	–
CN(CC(=O)Nc1cccc(F)c1)C(=O)/C=C/c1cc(Br)ccc1OC(F)F	active: 4.61 µM	–
Cc1ccc(S(=O)(=O)N(C)c2ccccc2C(=O)Nc2ccc3c(c2)OCCO3)cc1	inconclusive [inhibitor, single point]	–
CCN(c1cccc(C)c1)S(=O)(=O)c1ccc(-c2ccc(=O)[nH]n2)o1	inactive	–
O=C(CSc1ccc(Cl)cc1)N1CCN(c2ccc(Cl)cc2[N+](=O)[O-])CC1	inconclusive [inhibitor, single point]	–
COc1cccc(OC)c1C(=O)NC(=O)Nc1c(C)cccc1C	inactive	–
O=C(CN(Cc1ccco1)S(=O)(=O)c1ccccc1)N/N=C/c1ccccc1C(=O)O	inactive	–
COc1ccc(-c2cc(=O)oc3cc(OC(C)C(=O)NCCCn4ccnc4)ccc23)cc1 (stereo not given)	active: 18.4 µM	–
O=C(NCc1cccnc1)c1nn(-c2ccc(Cl)cc2)nc1CO	inactive	–
COc1cc(Cl)c(C)cc1Nc1nc2ccccc2c2nnc(C)n12	inactive	–
Cc1ccc(S(=O)(=O)Oc2ccccc2)cc1	inactive	–
OC[C@@H]1CN(Cc2ccc(F)cc2)C[C@H](n2cnc3c(NCc4ccco4)ncnc32)O1	inactive	–
CCc1ccc(OCc2nnc(-c3ccccc3Br)o2)cc1	inconclusive [inhibitor, single point]	–
CC(=O)N(Cc1ccco1)C1(C(=O)NC2CCCCC2)CCCCC1	inconclusive [inhibitor, single point]	–
COc1ccc2nc(N(Cc3cccnc3)C(C)=O)sc2c1	inactive	–
CCCC(=O)Nc1cccc(NC(=O)c2ccccc2Br)c1	inconclusive [inhibitor, single point]	–
COC(=O)CNC(c1ccccc1Cl)c1cc(Br)ccc1NC(=O)CCN1CCOCC1 (stereo not given)	inconclusive [inhibitor, partial curve, poor fit]	–
Cc1noc(C)c1COC(=O)CCCc1nc2ccccc2s1	inactive	–
O=C(NCc1ccccc1)c1cccc(COc2ccc3c(c2)CCC3)c1	inconclusive [inhibitor, single point]	–
